Assay results published in PMC4336329 (PLoS ONE, 2015).
About 2,200 (0.71%) of roughly 310,000 compounds showed an effect of 50% or more. The effect is printed as a negative number. This is one part of the list.

Target: human ether-à-go-go-related gene (hERG) potassium channel (human, UniProt Q12809)
Test: primary screen, population patch clamp on CHO cells stably expressing hERG

Chain of human ether-à-go-go-related gene (hERG) potassium channel (Q12809 whole entry, looked up): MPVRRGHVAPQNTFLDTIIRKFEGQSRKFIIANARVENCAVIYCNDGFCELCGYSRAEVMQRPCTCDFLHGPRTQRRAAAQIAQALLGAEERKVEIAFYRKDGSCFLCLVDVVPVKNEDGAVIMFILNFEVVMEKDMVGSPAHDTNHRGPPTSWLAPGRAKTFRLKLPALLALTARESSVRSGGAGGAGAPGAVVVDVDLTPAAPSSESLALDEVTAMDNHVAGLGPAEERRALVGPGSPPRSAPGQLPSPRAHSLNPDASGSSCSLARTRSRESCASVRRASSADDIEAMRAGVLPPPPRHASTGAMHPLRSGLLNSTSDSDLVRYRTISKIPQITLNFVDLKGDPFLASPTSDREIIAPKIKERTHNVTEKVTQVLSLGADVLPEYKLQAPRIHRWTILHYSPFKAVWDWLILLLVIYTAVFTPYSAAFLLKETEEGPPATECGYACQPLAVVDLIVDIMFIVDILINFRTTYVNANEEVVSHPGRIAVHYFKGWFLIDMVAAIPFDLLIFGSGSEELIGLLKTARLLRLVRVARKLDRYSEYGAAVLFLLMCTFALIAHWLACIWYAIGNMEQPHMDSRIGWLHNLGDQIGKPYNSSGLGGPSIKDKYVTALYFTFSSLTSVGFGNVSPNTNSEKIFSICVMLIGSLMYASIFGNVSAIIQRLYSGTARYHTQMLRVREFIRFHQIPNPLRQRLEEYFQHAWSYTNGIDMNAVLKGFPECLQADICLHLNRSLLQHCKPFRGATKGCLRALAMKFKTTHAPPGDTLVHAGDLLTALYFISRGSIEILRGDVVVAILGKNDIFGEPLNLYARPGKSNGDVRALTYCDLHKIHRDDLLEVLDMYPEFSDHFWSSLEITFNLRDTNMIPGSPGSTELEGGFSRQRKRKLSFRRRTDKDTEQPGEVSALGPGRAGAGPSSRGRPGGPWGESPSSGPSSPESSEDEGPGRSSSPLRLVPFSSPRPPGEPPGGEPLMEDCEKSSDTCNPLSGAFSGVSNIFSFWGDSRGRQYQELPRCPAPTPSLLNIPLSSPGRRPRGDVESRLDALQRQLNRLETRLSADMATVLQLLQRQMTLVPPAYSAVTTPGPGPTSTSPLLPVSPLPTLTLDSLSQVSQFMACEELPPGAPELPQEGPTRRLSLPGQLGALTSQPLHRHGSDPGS

SMILES | hERG current change (%, negative = inhibition) at 1uM
COc1ccc(N(CC(=O)Nc2ccc3c(c2)OCCO3)S(C)(=O)=O)c(OC)c1 | 0.263%
FC(F)(F)c1cccc(Cc2noc(CN3CCSCC3)n2)c1 | 4.83%
CCc1c(C(=O)NC2CCCCC2)[nH]c(C)c1C(C)=O | 20.4%
S=c1[nH]nc(-c2ccc(Br)cc2)n1Cc1ccco1 | 7.89%
CC(=O)OC(C(=O)NCc1ccco1)c1cccnc1 (stereo not shown) | 8.94%
Cc1cccc(COCC(Cc2ccccc2)N2CCN(C(=O)c3cccc(Cl)c3)CCC2=O)c1 (stereo not shown) | 3.37%
O=C(O)c1cc([N+](=O)[O-])ccc1NCCO | 0.572%
CC(C)(C)n1nc2c(c1NC(=O)c1ccc(S(=O)(=O)N3CCCC3)cc1)CSC2 | 6.29%
FCCCOc1ccc(-c2ccnc(-c3ccccc3)n2)cc1 | 9.67%
Cc1ccc(NC(=O)CN(C)C(=O)CCOc2cccc(C)c2)cc1 | 5.63%
CC1=NOC2(C)Nc3ncnn3C(c3ccccc3)C12 (stereo not shown) | -7.14%
COc1ccc(OC)c(S(=O)(=O)N2CCN(C34CC5CC(CC(C5)C3)C4)CC2)c1 | 6.12%
COc1ccc(C2C(C#N)=C(N)Oc3n[nH]c(C)c32)cc1Cn1cc([N+](=O)[O-])cn1 (stereo not shown) | 12.2%
Cc1cc(NC(=O)Cn2nc(C(=O)O)c3ccccc3c2=O)c([N+](=O)[O-])cc1C | 15.4%
Cc1ccc(S(=O)(=O)NCC(=O)N(CC(=O)NCc2ccco2)Cc2ccco2)cc1 | -7.04%
CCCc1cc(=O)n2[nH]c(-c3ccc(Br)cc3)cc2n1 | -6.05%
COc1ccc(NC(=O)Cn2cc(C#N)c3ccccc32)cc1 | 11.7%
COc1cc(CN2CCCC(C(=O)Nc3cccc(-n4cccn4)c3)C2)ccc1F (stereo not shown) | 3.45%
Cc1ccccc1-n1c(C)nc2ccsc2c1=O.Cl | 17.1%
S=C(NCc1ccccc1)N1CCN(Cc2ccc3c(c2)OCO3)CC1 | 8.62%
COc1nccnc1NS(=O)(=O)c1ccc(N=Cc2c(C)[nH]n(-c3ccccc3)c2=O)cc1 | 14.6%
CC(=O)Nc1nc(C)c(S(N)(=O)=O)s1 | -17.8%
Cc1ccc(-c2nnc(NC3CCCCC3)c3ccccc23)cc1S(=O)(=O)N1CCN(C)CC1 | -0.52%
Cc1cc(=O)[nH]c(N/N=C/c2cc(C)n(-c3ccccc3)c2C)n1 | 15.9%
Cc1ccc(N(CC(=O)NCCSCc2ccco2)S(C)(=O)=O)cc1 | 6.78%
CC1(C)CC(=O)C2=C(C1)N(c1cccc(Cl)c1)C(=O)NC2(C(F)(F)F)C(F)(F)F | 4.31%
COc1cc(CCCN2C(=O)C(=O)NC[C@@H]2CCCCN)cc(OC)c1OC | 21.3%
CCN(CC(=O)NCc1ccc(F)cc1)S(=O)(=O)c1ccc(C)cc1 | -13.7%

SMILES | hERG current change (%, negative = inhibition) at 1uM
CCn1c(CNS(=O)(=O)c2ccc(Cl)cc2)n[nH]c1=S | 9.49%
CCn1cc(S(=O)(=O)N2CCN(Cc3cccc(Cl)c3)CC2)cn1 | 9.11%
O=C(OCc1ccc(-c2ccccc2)cc1)c1cccc(O)c1 | 12.3%
O=C(NCCCN1CCOCC1)c1ccccc1N1C(=O)[C@@H]2Cc3c([nH]c4ccccc34)C(c3ccc(F)cc3)N2C1=O (stereo partly shown) | -23.1%
O=c1oc(C2(O)CCCCC2)cc2ccc(Br)cc12 | 19.6%
O=C(COc1cccnc1[N+](=O)[O-])NCc1cccs1 | 8.45%
CC(C)NC(=O)c1cc(C(=O)c2cc(Cl)ccc2O)coc1=N | 2.84%
CC(C)CC(=O)Nc1nnc(S(=O)(=O)N(C)Cc2ccco2)s1 | 21%
Cc1ccc(N(CC(=O)NCc2ccco2)C(=O)CNS(=O)(=O)c2ccccc2)c(C)c1 | 10.3%
COc1ccc(C2=NOC(Cn3nc(C(=O)O)cc3-c3ccccc3)C2)cc1 (stereo not shown) | 4.01%
N#CC1=C(N)Oc2cc(O)c(C=Nc3ccccc3)cc2C1c1ccccc1 (stereo not shown) | 8.55%
O=[N+]([O-])c1ccc(Sc2n[nH]c(-c3ccncc3)n2)nc1 | 13.8%
COc1ccc(C(=O)OCc2csc(C)n2)c(O)c1 | 14.1%
O=C(N/C(=C\c1ccccc1)C(=O)N1CCCCC1)c1ccc(Br)o1 | -0.538%
CC1CCN(C(=O)C(NS(=O)(=O)c2cccc3nsnc23)C(C)C)CC1 (stereo not shown) | 16.8%
CCOC(=O)c1c(NC(C)=O)sc2c1CCN(Cc1ccccc1)C2.Cl | 8.34%
CC(C)c1ccc(S(=O)(=O)N2CCN(C(=S)NCc3ccco3)CC2)cc1 | 4.96%
CC(OC(=O)CCc1nc2ccccc2c(=O)[nH]1)C(=O)c1ccc(Br)cc1 (stereo not shown) | 5.24%
Cc1ccccc1OCC(=O)Nc1cc(Cl)ccc1Oc1ccccc1 | -5.39%
COC(=O)C1=C(c2c(C)noc2C)C[C@@H]2CC[C@H]1N2C(=O)NCC1CC1 | 15.6%
CCOC(=O)c1c(C)n(Cc2ccc3c(c2)OCO3)c2ccc(O)cc12 | 9.67%
Cc1cc(NC(=O)Cn2nnc3sc4c(c3c2=O)CCCC4)no1 | 7.27%
COc1ccc(S(=O)(=O)N(CC(=O)NCCSc2ccccn2)c2ccccc2)cc1 | 9.8%
Br.CCCCCCCn1c(=N)n(CC(=O)c2ccco2)c2ccccc21 | -40%
O=C(Cn1nnc2ccccc2c1=O)N[C@@H](Cc1ccccc1)C(=O)O | 13%
Nn1c(SCc2cccc(F)c2)nnc1-c1cccnc1 | 7.92%
CCC1(c2ccc(OC)cc2)NC(=O)N(CC(=O)NC2CCCCC2C)C1=O (stereo not shown) | 2.68%
